Data published in the supplement of paper PMC10126150.
Sequences with one replicate were seen in a single cluster, so their values are uncertain.

System: ATP
Assay: switch fluorescence ratio, 500 uM ATP over buffer (Cy3 cluster intensity, sum of 5 cycles each) (fold (ratio)); higher = stronger signal-on switching upon ATP binding; sequences stand for … in TCGTCGGCAGCGTCAGATGTGTATAAGAGACAGTTTTTTTTTTTTTTTTTTTTTTTTT…TC
Details: aptamer strand: ATP DNA aptamer (quencher-CACCTGGGGGAGTATTGCGGAGGAAGG + anchor), 100 nM annealed; ATP concentration: 500 uM; one replicate
Outline: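 Between each of five buffer/ATP cycles, the flow-cell was stripped with NaOH and re-annealed. Each cycle imaged Cy3-labelled switching-strand clusters, annealed to 100 nM quencher-labelled ATP aptamer on a modified Illumina MiSeq flow-cell, first in selection buffer and then after 15 min with 500 uM ATP at 22 °C. The fluorescence ratio is summed target-cycle over summed buffer-cycle Cy3 intensity per cluster, averaged per switch-domain sequence, with clusters outside 100-1000 RFU excluded.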
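Note: ATP exposure 15 min at 22 °C before imaging.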

Sequence | switch fluorescence ratio
CGAATCAGG | 1.08
GTATTGTACA | 1.02
TCTTTCCCAG | 1.09
ATCTAGTAAC | 1.01
AGTCGGCCT | 0.984
TTTACAAACG | 1.33
AAAGTTGCGC | 0.95
TCAGAGTTC | 0.989
GGATACGCTA | 1.13
GTCAGGGCTC | 0.962
AATATAGGGA | 0.946
ATTGCGATGG | 1.06
CCGGGCCTCA | 2.18
TCTGATTGAT | 1
AGGTCACAGC | 1.03
TCGCAACCTT | 1.63
CCCTCCTGCC | 3.04
GCTGTGACTG | 0.99
GGCTGTGTGG | 1.01
CTGTGTCATC | 1.01
AGTATTTATC | 0.973
ACAAAATCTG | 1.11
GTTCAGTTT | 0.977

Sequence | switch fluorescence ratio
TCGTACATGG | 1.01
AACGTTGTCG | 1.04
CGGTTACGTG | 0.992
TGGCAGACAG | 1.02
TCATGACGAC | 1.2
TCTTCATTAT | 0.972
TTTAAATAAG | 0.993
CGCCAATCTT | 1.05
GTTCCCTGAT | 1.17
CCACATTCGT | 1.02
GCAGAGGGAC | 1.02
GTGCTAGAGC | 1.02
GACGCATATT | 3.33
CCTCAAGGCA | 1.84
AACCGAGTCT | 1.17
ATATATGTGA | 1
TGAAGGGCGG | 0.989
TTCTACGCGC | 2.62
ATATTTCATC | 0.983
AGAATGTCTA | 0.978
TCTAAGACGA | 1
GATTCCGGCG | 1.17
GACACGCGT | 0.982

Sequence | switch fluorescence ratio
TAGGCGCCCG | 0.98
TCGGTAGGGT | 1.01
ATGCCACGAC | 1.04
AGAGTGGCTT | 0.941
AGTATATTCC | 1.11
GCATTTGTAT | 1.04
TATCACTAAT | 0.988
CCCTTT | 1.03
TCCATATCAA | 1.01
ACATGCGAGG | 0.997
TGGCCCTAGG | 1.06
AGTTGAACGG | 1.05
GGGCCTATCT | 1.01
TCTCTGTGTC | 1.07
TCCTCACGTT | 1.68
AGAGGGGGT | 0.974
ATGAGAATTG | 0.993
GATGGGCTAT | 1.05
CTTCATGTCT | 1
AGTACAGTGG | 0.988
TGCCTATAGA | 0.969
AGGGCTATAA | 1.24
AGCGGCGATG | 0.945

Sequence | switch fluorescence ratio
TTAGAACATT | 1.01
GAGCTGTATA | 0.945
TCTGTGTCAG | 0.947
GTTTACTTGG | 1.03
GAGCGGGGTC | 0.924
AGTTTACAGA | 0.997
GTTAGGCTCC | 1.02
TGCGCCTTCC | 2.38
GAGCTATGGA | 0.993
TGCAAATTAC | 1.39
GAACGAATTA | 1.02
CTTGTGAGCA | 1.06
TCCGGGAACG | 1.22
GGGGCGTTAA | 1.02
TGTGTTTAAT | 0.971
CATTTAACAA | 1.02
AATGGATAGA | 0.945
AACGCTGAGC | 1.08
ACACCATGTT | 1.01
GTGCGTCTGG | 1.02
TGTATCGCGT | 0.951
CGCTTGAGTG | 0.979
CAGACCGCGC | 1.38

Sequence | switch fluorescence ratio
GACATCATCG | 1.02
TGGGGCGTGG | 0.979
TTAGCGAAGT | 0.992
GGGGATTC | 1
CATTCTACTC | 1.1
CACGAGTTTC | 0.975
AACTACTCAC | 1.25
TAGGCCAGA | 1.01
TAGAACTGAA | 1.07
GGTCGGGTCA | 1.01
TGACGGTTCA | 1.14
AACATAACGC | 1.11
TAATCCTCCT | 1.15
TGGGCCATAT | 0.987
GTGACAATCG | 1.04
TGAACGCAGA | 1.22
GACATGACC | 1.16
AGAGACGACC | 1.09
ACTGTCGCAA | 1.12
TATAGCGTCC | 1.02
GTGGTATATC | 0.965
GTCACTTATG | 1.01
ATATGGTGGC | 1.01

Sequence | switch fluorescence ratio
AGGCTGCCGG | 1
AAGAAAACTA | 1.02
CGACTCGCAT | 3.3
CGTTCTGCGG | 1
GCAGAGGAAG | 1.05
CTGTCTGTTG | 0.956
TTGACGTATG | 1.01
AAGATTTGCA | 0.994
CGCAACGCGC | 1.05
TATACCTGCA | 1.22
ATCAGATCTG | 1.01
GACTCATAAA | 1.03
CCGGGGTTAC | 3.15
GAAGTCAGAT | 1.02
GGGCGGGTAC | 1.15
GACAGGGTAC | 1.34
TGGCGTCACT | 1.01
CGTTTGAAC | 1.01
TTTTGGTACG | 0.976
CCTGTAGACT | 1.06
AGCAGGCGGT | 1.04
TGACAAGTA | 1.13
GTTCTGAAAA | 1.04

Sequence | switch fluorescence ratio
AACGTTTTAC | 1.12
CCTCGTTGAC | 3.76
CTCCGCGGAG | 1.3
CTCCGTGCAG | 1.57
ATCAGGTGTT | 2.64
GCAAACTTAA | 1.04
ATGAAAGGCA | 0.964
ATAGAGAGGA | 0.981
ACACACGTAT | 1.37
GGCCGGTGTC | 1
GAGTTCTCTG | 1.06
TATAGTACTG | 1.08
CTAACCGGAA | 1.57
GCAGCTAGTG | 1.04
CGACCTATCA | 0.963
ATTCAGTGGA | 0.958
TCGGGCGGCC | 0.987
TTTGTTTT | 0.951
ATATGCTCGG | 1.01
